# From PMC4336329 (PLoS ONE, 2015)
# Screen size: about 310,000 compounds; about 2,200 (0.71%) showed an effect of 50% or more. The effect is printed as a negative number. This is one part of the list.
# Target: human ether-à-go-go-related gene (hERG) potassium channel (human, UniProt Q12809)
# Assay: primary screen, population patch clamp on CHO cells stably expressing hERG
# human ether-à-go-go-related gene (hERG) potassium channel, sequence (Q12809 whole entry, looked up): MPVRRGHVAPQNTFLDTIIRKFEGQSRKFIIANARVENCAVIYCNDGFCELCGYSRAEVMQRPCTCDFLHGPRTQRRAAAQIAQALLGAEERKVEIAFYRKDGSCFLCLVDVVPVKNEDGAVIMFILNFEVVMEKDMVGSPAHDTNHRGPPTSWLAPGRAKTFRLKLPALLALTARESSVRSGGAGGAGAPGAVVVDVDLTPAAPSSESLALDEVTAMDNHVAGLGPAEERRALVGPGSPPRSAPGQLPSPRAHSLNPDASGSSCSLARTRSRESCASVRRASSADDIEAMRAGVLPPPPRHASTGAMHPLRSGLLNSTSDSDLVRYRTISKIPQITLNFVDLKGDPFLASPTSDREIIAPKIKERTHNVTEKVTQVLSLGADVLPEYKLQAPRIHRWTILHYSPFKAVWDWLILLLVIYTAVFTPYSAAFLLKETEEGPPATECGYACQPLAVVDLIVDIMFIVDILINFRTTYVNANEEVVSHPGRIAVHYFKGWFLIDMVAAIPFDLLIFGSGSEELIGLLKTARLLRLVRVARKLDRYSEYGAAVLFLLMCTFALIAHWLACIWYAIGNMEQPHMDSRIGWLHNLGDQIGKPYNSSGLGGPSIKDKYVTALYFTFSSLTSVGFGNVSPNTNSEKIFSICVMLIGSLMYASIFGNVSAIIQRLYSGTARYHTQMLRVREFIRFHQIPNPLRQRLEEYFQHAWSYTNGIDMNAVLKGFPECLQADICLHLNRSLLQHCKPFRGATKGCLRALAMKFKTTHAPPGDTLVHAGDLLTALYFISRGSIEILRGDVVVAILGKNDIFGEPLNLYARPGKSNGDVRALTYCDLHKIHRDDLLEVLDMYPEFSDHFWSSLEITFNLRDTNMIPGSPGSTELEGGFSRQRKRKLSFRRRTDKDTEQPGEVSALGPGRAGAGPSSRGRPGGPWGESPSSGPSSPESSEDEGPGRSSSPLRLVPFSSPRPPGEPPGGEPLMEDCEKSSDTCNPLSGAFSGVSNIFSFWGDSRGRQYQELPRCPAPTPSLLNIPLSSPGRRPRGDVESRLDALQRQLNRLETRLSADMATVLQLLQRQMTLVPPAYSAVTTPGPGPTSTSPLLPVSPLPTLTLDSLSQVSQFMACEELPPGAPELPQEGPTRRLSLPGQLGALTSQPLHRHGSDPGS
row,Compound,"hERG current change (%, negative = inhibition) at 1uM"
1,CCOC(=O)C(Cc1ccccc1)(Cc1ccccc1)C(C)=O,9.95%
2,Cc1cnc(CN2CCc3c([nH]c4ccccc34)C2C2CCCCC2)[nH]1 (stereo not shown),-6.2%
3,Cc1cc2[nH]c(=O)c(=O)[nH]c2cc1S(=O)(=O)N1CCC(C)CC1,8.26%
4,O=C(NNc1ncnc2c1cnn2-c1ccccc1)c1ccco1,6.44%
5,Cn1c(CNC(=O)CNC(=O)Cc2ccccc2)cc(=O)n(C)c1=O,18.2%
6,COc1ccc(NC(=S)NNC(=O)C(C)n2nc(C)c([N+](=O)[O-])c2C)cc1 (stereo not shown),15.9%
7,CC(=O)Nc1ccc(-n2cc(-c3ccccc3)[nH]c2=S)cc1,15.5%
8,CCN1C(=O)c2cccc3c(S(=O)(=O)NC(Cc4c[nH]c5ccccc45)C(=O)O)ccc1c23 (stereo not shown),-0.758%
9,COc1cccc(C(=O)c2ncc(C(F)(F)F)cc2Cl)c1,11.4%
10,O=c1oc2ccc3ccccc3c2c2c1SC(C(F)(F)F)C2 (stereo not shown),5.17%
11,CCOCCCNC(=O)CSc1ccccc1,27.5%
12,CCN(CC)CCCNC(=O)c1ccccc1C,5.83%
13,O=C(Cn1c(CN2CCCCC2)nc2ccccc2c1=O)Nc1ccccc1,-7.71%
14,O=C(NCc1cccnc1)c1cnc2ccccc2n1,7.42%
15,CSc1ccccc1OCc1cc(C(=O)N2CCNC(=O)C2)no1,2.02%
16,CCOc1ccc(NC(=S)NC23CC4CC(CC(C4)C2)C3)cc1,1.79%
17,CC(=O)NC(CC(=O)NCc1ccncc1)c1ccccc1 (stereo not shown),14.8%
18,Cc1ccc2[nH]cc(CCNC(=O)/C=C/c3ccco3)c2c1,9.37%
19,CC(Cl)C(=O)Nc1ccccc1C#N (stereo not shown),24%
20,COc1ccc(/C=C(/NC(=O)c2ccccc2)C(=O)Nc2cccc(C(=O)O)c2)cc1,12.1%
21,OCC#CC[N+]1(CC#Cc2ccccc2)CCOCC1.[Br-],6.94%
22,CN1C(=O)C2(C(C#N)=C(N)Oc3c2oc(CO)cc3=O)c2ccccc21 (stereo not shown),12%

row,Compound,"hERG current change (%, negative = inhibition) at 1uM"
1,COc1ccc(OC)c(NC(=O)CS(=O)(=O)Cc2nc(-c3ccccc3C)oc2C)c1,11.4%
2,O=C(Cn1ccc2ccccc2c1=O)NCCC(=O)N1CCN(c2cccc(C(F)(F)F)c2)CC1,0.874%
3,COc1ccc(C2SCCN2C(=O)c2ccc([N+](=O)[O-])cc2)cc1 (stereo not shown),-8.35%
4,CNC(=O)CSCc1c(Cl)cccc1Cl,3.16%
5,COC(=O)c1sc(NC(=O)C2c3ccccc3Oc3ccccc32)c(C(=O)OC)c1C,2.29%
6,CC1CCCCC1NC(=O)COC(=O)C12CC3CC(CC(Cl)(C3)C1)C2 (stereo not shown),8.57%
7,COc1cc(/C=N/NC(=O)c2ccc(Cn3cc([N+](=O)[O-])cn3)o2)cc(Br)c1O,4.69%
8,O=C(C1=COCCO1)N(Cc1nnc(-c2ccc(Cl)cc2)o1)C1CC1,-3.45%
9,Cc1nn(CC(=O)N(C)C)c(C)c1S(=O)(=O)N1CCOCC1,15.9%
10,CCOc1ccccc1CNC(=O)C1CCN(c2nc3ccccc3o2)CC1,9.76%
11,Cc1c(CNCCCc2ccccc2)c(C(=O)O)c(C)n1Cc1ccccc1,3.24%
12,CCOC(=O)c1csc(NC(=O)CSc2nnnn2-c2ccc3c(c2)OCCO3)n1,16.9%
13,Nc1nc(CN2CCN(c3ccccc3F)CC2)nc(Nc2ccccc2)n1,0.21%
14,O=C(CSc1nnc(-c2ccccn2)n1Cc1ccco1)c1ccc(-c2ccccc2)cc1,7.72%
15,CC1CCc2c(nc3sc4c(c3c2N)CCCC4)C1 (stereo not shown),5.48%
16,COc1ccc(/C(N)=N/OC(=O)Oc2ccccc2)cc1OC,15.2%
17,CCC(Oc1ccccc1)C(=O)Nc1ccccc1N1CCCCC1 (stereo not shown),2.64%
18,O=C1NC(c2ccc(Br)cc2)Oc2ccccc21 (stereo not shown),7.71%
19,CCc1ccccc1NC(=O)CSc1nnc([C@@H](NC(=O)OC(C)(C)C)C(C)CC)o1 (stereo partly shown),-1.67%
20,O=C1CN(C(=O)c2cccs2)c2ccccc2N1,11.9%
21,Cc1c(Cl)cccc1NC(=O)CSc1nnc(C)n1-c1ccccc1,11.8%
22,Cc1ccc(C(=O)COC(=O)c2cnccn2)cc1,8.22%

row,Compound,"hERG current change (%, negative = inhibition) at 1uM"
1,O=C(c1ccc(Cl)cc1)[C@@H]1[C@@H]2C(=O)N(c3ccc(Cl)cc3)C(=O)[C@@H]2C2c3ccccc3C=NN21 (stereo partly shown),9.87%
2,CCc1cccc(NS(=O)(=O)c2ccc(-n3cccn3)cc2)c1,17.7%
3,CC(=O)Nc1nnc(SCC(=O)N2CCN(Cc3ccccc3)CC2)s1,8.8%
4,CN(C(=O)COC(=O)CCCc1c[nH]c2ccccc12)c1c(N)n(Cc2ccccc2)c(=O)[nH]c1=O,8.69%
5,COc1ccc(-c2cc(C(=O)Nc3ccc(C)cc3)no2)cc1,5.99%
6,CC1CN(S(=O)(=O)c2ccc(-c3nc4ccccc4s3)cc2)CC(C)O1 (stereo not shown),18.6%
7,Cc1ccc(NC(=O)CN2CCCC2c2cccs2)cc1S(=O)(=O)N1CCCCC1 (stereo not shown),7.37%
8,Cc1ccc(S(=O)(=O)Nc2cc(C(C)C)c(O)cc2C)cc1,2.57%
9,CCn1c(=O)cc(OCC(=O)Nc2cc(C)ccn2)c2ccccc21,15.6%
10,COc1ccc(N(CC(=O)N2CCc3ccccc3C2)S(=O)(=O)c2c(C)nn(C)c2C)cc1,-3.69%
11,O=C(O)CC1(CC(=O)NCc2ccc(F)cc2)CCCCC1,19.8%
12,CCOc1ccc(-c2nc(N)nc(C)c2-c2ccc(OC)c(OC)c2)c(O)c1,11.3%
13,CCC(=O)Nc1cccc(-c2ccc(N3CCN(C)CC3)nn2)c1,6.28%
14,O=c1[nH]c(=O)n(-c2ccccc2F)c(O)c1/C=C1\C=Nc2ccccc21,6.77%
15,Br.Fc1cc(Cl)ccc1NC1=NCCCCC1,10.4%
16,Cc1cccc(OCC(=O)Nc2cc(C)c(C)cc2O)c1,17.1%
17,CC(=O)c1ccc(COC(=O)Cc2ccc([N+](=O)[O-])cc2)cc1,12.5%
18,Cc1noc(C)c1S(=O)(=O)NCCc1ccc(S(N)(=O)=O)cc1,11.7%
19,C/C(=N\NC(=O)C(=O)N/N=C(\C)c1cccc(O)c1)c1cccc(O)c1,19.4%
20,O=C(N/N=C/c1ccncc1)c1cc([N+](=O)[O-])cc([N+](=O)[O-])c1,-1.58%
21,CC(C)Oc1ccccc1C1CC(=O)Nc2cc3c(cc21)OCO3 (stereo not shown),16.3%
22,Cc1noc(C)c1C(=O)N1CCN(C(=O)c2sc3cc(Cl)ccc3c2Cl)CC1,-8.74%

row,Compound,"hERG current change (%, negative = inhibition) at 1uM"
1,Brc1ccc(-c2csc(-c3ccncc3)n2)cc1,19.3%
2,O=C(c1ccccc1[N+](=O)[O-])n1cnc2ccccc21,9.55%
3,O=S(=O)(c1ccccc1)N1CCN=C1SCc1c(F)cccc1Cl,7.5%
4,O=S(=O)(c1ccc(Sc2nnc3ccccn23)nc1)N1CCOCC1,12.6%
5,CCOc1cc(N2CCOCC2)c(OCC)cc1NC(=O)C1=NN(c2cccc(C)c2)C(=O)CC1,6.5%
6,CN(C)C(=O)C(OC(=O)c1ccc2ccccc2n1)c1ccccc1 (stereo not shown),10.7%
7,CN(C)c1ccc(C(=O)OCC(=O)NC2CCCCC2)cc1,11.4%
8,O=C(c1cnn2c(C(F)(F)F)cc(-c3cccs3)nc12)N1CCOCC1,14.2%
9,CCN(CC)C(=O)CSc1nc(O)c(Cc2ccccc2)c(=O)n1-c1ccccc1,11.9%
10,C=CCN1C(=O)c2ccc(C(=O)N3CCN(S(=O)(=O)c4cccc([N+](=O)[O-])c4)CC3)cc2C1=O,-2.72%
11,COc1cccc(CNC(=O)CN2C(=O)CCSc3ccc(S(=O)(=O)N4CCCC4)cc32)c1,10.3%
12,C=CCN1C(=O)S/C(=C\c2ccc(N3CCOCC3)cc2C)C1=O,13.1%
13,CCc1nc(N=C(N)N)nc2ccccc12,10.2%
14,CCOC(=O)CCNC(=O)N1CCCC(C(=O)c2ccccc2SC)C1 (stereo not shown),-1.74%
15,Cc1ccc(OCCn2c(C3CC(=O)N(Cc4ccccc4)C3)nc3ccccc32)cc1 (stereo not shown),7.04%
16,CN(Cc1ccccc1)C(=O)c1[nH]cnc1C(=O)NCCCCCNC(=O)OC(C)(C)C,7.54%
17,COc1ccc(CNC(=O)COC(=O)c2ccc(F)c(S(=O)(=O)N3CCCCC3)c2)cc1OC,11.7%
18,COc1cccc(NC(=S)N(CCCN2CCCC2)Cc2cccn2Cc2ccc(Cl)cc2)c1,-4.22%
19,C/C(=N/NC(=O)c1ccncc1)c1ccc2c(c1)OCO2,13.7%
20,CCc1noc(C)c1C(=O)N(C)CC(=O)Nc1ccccc1C(F)(F)F,7.89%
21,COc1ccc(OC)c(Nc2cc(C)nc3ccccc23)c1,-3.29%
22,CCC(CC)c1nnc(NC(=O)C2CCCO2)s1 (stereo not shown),2.37%
